6 sequences from paper PMC4081100 can be followed below.

Common to all, as to assay: universal protein binding microarray (PBM)
Common to all, as to settings: transcription factors of Arabidopsis thaliana; high values mean tight binding; most listed sequences are background and not binding sites; double strand, one strand shown

For one experiment, the target named is T1, GST-ANAC092(1-176) (UniProt Q9FKA0).
T1 sequence: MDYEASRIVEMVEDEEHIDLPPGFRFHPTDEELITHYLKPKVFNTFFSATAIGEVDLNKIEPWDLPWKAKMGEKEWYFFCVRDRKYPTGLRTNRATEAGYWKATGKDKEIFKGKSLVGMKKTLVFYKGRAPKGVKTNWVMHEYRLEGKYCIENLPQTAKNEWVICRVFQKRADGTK

Another experiment has as its target GST-NTL6(1-168) (UniProt Q9SCK6).
Sequence of UniProt Q9SCK6 (Q9SCK6 1-168): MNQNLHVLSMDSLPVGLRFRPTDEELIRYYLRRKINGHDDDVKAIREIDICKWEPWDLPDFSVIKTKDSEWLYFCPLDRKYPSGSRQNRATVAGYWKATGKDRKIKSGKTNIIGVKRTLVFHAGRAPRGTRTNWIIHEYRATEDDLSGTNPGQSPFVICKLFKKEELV
A further experiment concerns the target T2, GST-ANAC019 NAC domain (UniProt Q9C932).
T2 sequence: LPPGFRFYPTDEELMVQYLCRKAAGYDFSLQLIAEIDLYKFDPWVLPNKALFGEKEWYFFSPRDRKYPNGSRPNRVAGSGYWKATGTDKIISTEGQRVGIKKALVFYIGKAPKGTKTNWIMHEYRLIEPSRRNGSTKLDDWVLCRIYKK

The target of another experiment is T3, GST-ANAC055(1-171) (UniProt Q9LDY8).
T3 sequence: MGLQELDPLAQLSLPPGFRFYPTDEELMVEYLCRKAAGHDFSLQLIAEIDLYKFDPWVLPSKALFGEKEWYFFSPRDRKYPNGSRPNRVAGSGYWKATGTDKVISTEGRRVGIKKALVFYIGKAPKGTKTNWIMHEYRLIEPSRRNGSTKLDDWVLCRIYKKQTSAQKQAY

Another experiment concerns the target T4, GST-ATAF1 NAC domain (UniProt Q39013).
T4 sequence: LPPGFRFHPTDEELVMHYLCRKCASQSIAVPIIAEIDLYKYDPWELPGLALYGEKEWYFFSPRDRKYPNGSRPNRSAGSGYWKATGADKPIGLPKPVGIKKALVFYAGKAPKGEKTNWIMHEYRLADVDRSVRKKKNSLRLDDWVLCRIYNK

Experiment [1] has as its target T5, GST-ANAC092(1-285) full length (UniProt Q9FKA0).
T5 sequence: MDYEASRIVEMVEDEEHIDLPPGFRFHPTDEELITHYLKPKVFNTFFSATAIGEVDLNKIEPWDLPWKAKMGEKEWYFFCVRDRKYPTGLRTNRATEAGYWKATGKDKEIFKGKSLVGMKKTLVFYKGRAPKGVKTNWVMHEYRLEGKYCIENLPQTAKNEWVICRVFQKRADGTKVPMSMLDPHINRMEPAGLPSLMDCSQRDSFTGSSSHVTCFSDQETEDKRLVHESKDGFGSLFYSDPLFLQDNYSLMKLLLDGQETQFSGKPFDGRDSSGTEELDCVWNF

The target in the next experiment is T6, GST-NAP(1-166) (UniProt O49255).
T6 sequence: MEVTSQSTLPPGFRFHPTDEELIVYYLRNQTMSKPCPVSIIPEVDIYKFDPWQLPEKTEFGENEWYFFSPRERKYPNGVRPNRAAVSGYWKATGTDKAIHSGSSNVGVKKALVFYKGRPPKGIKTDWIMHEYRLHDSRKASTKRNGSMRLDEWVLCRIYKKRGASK

A further experiment concerns the target T7, GST-NST2(1-184) (UniProt Q9M274).
T7 sequence: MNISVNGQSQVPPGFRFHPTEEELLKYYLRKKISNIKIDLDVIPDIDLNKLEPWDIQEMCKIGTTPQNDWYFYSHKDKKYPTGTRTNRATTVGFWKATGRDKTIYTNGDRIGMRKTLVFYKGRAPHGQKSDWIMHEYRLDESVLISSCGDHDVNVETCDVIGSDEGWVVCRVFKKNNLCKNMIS

The target of the next experiment is T8, GST-NTL8 NAC domain (UniProt Q9XIN7).
T8 sequence: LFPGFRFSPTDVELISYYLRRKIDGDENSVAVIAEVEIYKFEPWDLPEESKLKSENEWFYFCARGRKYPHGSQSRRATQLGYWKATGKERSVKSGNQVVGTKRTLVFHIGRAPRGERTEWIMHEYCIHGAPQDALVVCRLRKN

The target in another experiment is T9, GST-SND1(1-203) (UniProt Q9LPI7).
T9 sequence: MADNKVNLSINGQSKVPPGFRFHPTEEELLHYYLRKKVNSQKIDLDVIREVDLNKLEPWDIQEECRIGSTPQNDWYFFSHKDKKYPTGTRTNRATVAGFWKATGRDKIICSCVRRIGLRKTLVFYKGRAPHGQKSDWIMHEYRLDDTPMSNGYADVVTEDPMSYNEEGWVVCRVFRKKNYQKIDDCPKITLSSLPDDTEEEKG

Another experiment has as its target T10, GST-VND3 NAC domain (UniProt Q9FH59).
T10 sequence: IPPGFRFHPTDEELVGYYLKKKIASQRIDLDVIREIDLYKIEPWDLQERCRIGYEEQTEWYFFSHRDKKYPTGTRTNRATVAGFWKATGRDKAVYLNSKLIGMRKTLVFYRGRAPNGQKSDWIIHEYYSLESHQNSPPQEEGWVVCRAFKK

The target of a further experiment is T11, GST-VND7 NAC domain (UniProt Q9C8W9).
T11 sequence: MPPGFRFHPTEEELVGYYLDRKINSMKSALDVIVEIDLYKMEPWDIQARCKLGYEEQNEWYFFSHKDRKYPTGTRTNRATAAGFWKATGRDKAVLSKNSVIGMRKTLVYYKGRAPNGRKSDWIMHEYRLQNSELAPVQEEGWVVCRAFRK

In experiment [2] the target is T12, GST-VOZ2 (Arabidopsis thaliana) (UniProt Q9SLB9).
T12 sequence: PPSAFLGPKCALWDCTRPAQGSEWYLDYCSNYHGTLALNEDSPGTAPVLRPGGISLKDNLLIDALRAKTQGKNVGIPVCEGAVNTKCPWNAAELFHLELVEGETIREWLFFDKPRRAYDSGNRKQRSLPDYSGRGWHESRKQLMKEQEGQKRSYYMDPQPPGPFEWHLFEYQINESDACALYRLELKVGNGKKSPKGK

The target of the next experiment is GST-WRKY1(266-371) (UniProt Q9SI37).

Only a part is listed here, and it is no random draw. For part of these data: At the low end of the ranking the order means little. The list shows a part of the results. For part of these data: Construct or isoform of the protein are uncertain.

Sequence of GST-WRKY1(266-371) (Q9SI37 266-371, chain 1 of 2): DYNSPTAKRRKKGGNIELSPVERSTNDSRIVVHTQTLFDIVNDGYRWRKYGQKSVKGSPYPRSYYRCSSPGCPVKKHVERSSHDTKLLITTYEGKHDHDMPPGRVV

Take GGCGGTCA: the binding signal with GST-ANAC092(1-176) was -0.115 E-score; with GST-NTL6(1-168) it was -0.108 E-score; in the experiment with GST-ANAC019 NAC domain it was -0.00971 E-score; with GST-ANAC055(1-171), -0.266 E-score; in the experiment with GST-ATAF1 NAC domain, -0.281 E-score; in [1] it was -0.235 E-score. The binding signal with GST-NAP(1-166) was -0.0795 E-score; in the experiment with GST-NST2(1-184) it was -0.208 E-score; with GST-NTL8 NAC domain, -0.122 E-score; with GST-SND1(1-203) it was -0.194 E-score; with GST-VND3 NAC domain it was -0.257 E-score; in the experiment with GST-VND7 NAC domain, -0.219 E-score. The binding signal was -0.127 E-score in experiment [2] and 0.428 E-score with GST-WRKY1(266-371).

For GTCGTCAA, the binding signal was -0.0752 E-score in the experiment with GST-ANAC092(1-176); -0.108 E-score with GST-NTL6(1-168); -0.0529 E-score with GST-ANAC019 NAC domain; -0.00743 E-score with GST-ANAC055(1-171); -0.0166 E-score with GST-ATAF1 NAC domain; -0.106 E-score in [1]. The binding signal was 0.0246 E-score with GST-NST2(1-184); -0.0686 E-score with GST-NTL8 NAC domain; -0.0788 E-score in the experiment with GST-SND1(1-203); -0.0964 E-score with GST-VND3 NAC domain; -0.0592 E-score in the experiment with GST-VND7 NAC domain; 0.0367 E-score in experiment [2]. Besides, the binding signal with GST-WRKY1(266-371) amounted to 0.424 E-score.

CGGTTGAC: the binding signal is 0.0351 E-score with GST-ANAC092(1-176); -0.0804 E-score in the experiment with GST-NTL6(1-168); 0.023 E-score with GST-ANAC019 NAC domain; -0.0773 E-score with GST-ANAC055(1-171); -0.0196 E-score with GST-ATAF1 NAC domain; 0.00302 E-score in [1]. Further, the binding signal in the experiment with GST-NAP(1-166) is -0.0194 E-score; with GST-NST2(1-184), -0.0294 E-score; with GST-NTL8 NAC domain it was -0.0476 E-score; with GST-SND1(1-203) it was -0.027 E-score; in the experiment with GST-VND3 NAC domain, -0.135 E-score; with GST-VND7 NAC domain, -0.0505 E-score. Further, the values for the binding signal (in [2]; with GST-WRKY1(266-371)) were -0.0822 E-score and 0.475 E-score, respectively.

For GACGACCA, the binding signal was -0.0675 E-score with GST-ANAC092(1-176); -0.0667 E-score in the experiment with GST-NTL6(1-168); -0.0734 E-score with GST-ANAC019 NAC domain; -0.0663 E-score with GST-ANAC055(1-171); -0.208 E-score with GST-ATAF1 NAC domain; -0.163 E-score in experiment [1]. Moreover, the binding signal with GST-NAP(1-166) was 0.00882 E-score; in the experiment with GST-NST2(1-184), -0.125 E-score; with GST-NTL8 NAC domain it was -0.154 E-score; in the experiment with GST-SND1(1-203), -0.123 E-score; in the experiment with GST-VND3 NAC domain it was -0.201 E-score; with GST-VND7 NAC domain, -0.167 E-score. Further, the results for the binding signal (in experiment [2]; in the experiment with GST-WRKY1(266-371)) were -0.127 E-score and 0.43 E-score, respectively.

Turning to AGGGTCAA, the binding signal with GST-ANAC092(1-176) is -0.0737 E-score; in the experiment with GST-NTL6(1-168), 0.00457 E-score; with GST-ANAC019 NAC domain, -0.013 E-score; in the experiment with GST-ANAC055(1-171), -0.143 E-score; in the experiment with GST-ATAF1 NAC domain it was -0.161 E-score; in experiment [1], -0.0237 E-score. For the same sequence, the binding signal with GST-NAP(1-166) was -0.0874 E-score; with GST-NST2(1-184) it was -0.089 E-score; with GST-NTL8 NAC domain, 0.0535 E-score; with GST-SND1(1-203), -0.0133 E-score; with GST-VND3 NAC domain, -0.0752 E-score; in the experiment with GST-VND7 NAC domain it was -0.0515 E-score. Besides, the binding signal was -0.00847 E-score in experiment [2] and 0.483 E-score with GST-WRKY1(266-371).

As to GCAGTCAA, the binding signal in the experiment with GST-ANAC092(1-176) is 0.0483 E-score; with GST-NTL6(1-168), 0.034 E-score; with GST-ANAC019 NAC domain, -0.00272 E-score; in the experiment with GST-ANAC055(1-171), -0.00632 E-score; in experiment [1] it was 0.03 E-score; with GST-NST2(1-184) it was -0.0781 E-score. The binding signal was 0.0556 E-score with GST-NTL8 NAC domain; -0.0791 E-score in the experiment with GST-SND1(1-203); -0.155 E-score with GST-VND3 NAC domain; 0.0402 E-score in the experiment with GST-VND7 NAC domain; 0.0022 E-score in experiment [2]; 0.478 E-score in the experiment with GST-WRKY1(266-371).
